According to the RNAGym collection of RNA variant scans (doi:10.7554/elife.90254):
Read counts are not given, so values of variants with three or more changes are uncertain.

B1: OR4K15 (parent)
chain: GUUAACGGUCAUAGGCCAUGGAAACUAGGAGCACCAUUUCGCUGCCAGUGAAGAAAUGAACAAAGAAAAUCUGGGCCAGGCAGGCAUCAAAAGAAAUAGUCUUGCGCUCAACCAGAAAGUCUGUAAUCAUUUUAAGGGUA

Variants of: B1
Assay: self-cleavage, relative activity (ratio to wild type); higher = more cleavage; in vitro, sequencing; the parent is a self-cleaving ribozyme

Row | Variant | self-cleavage
1 | GUUAACGGUCAUAGGCCAUGGAAACUAGGAGCACCAUCUCGCUGCCAGUGAAGAAAUGAACAAAGAAAAUCUGGGCCAGGCAGGCAUCAAAAGAAAUAGUCUUGCGCUCAACCUGAAAGUCUGUAAUCAUUUUAAGGGCA [U38C A114U U139C] | 0.24
2 | GUUAACGGUCAUAGGCCAUGGAAACUAGGAGCACCAUCUCGCUGCCAGUGAAGAAAUGAACAAAGAAAAUCUGGGCCAGGCAGGCAUCAAAAGAAAUAGUCUUGCGCUCAACCAGAGAGUCUGUAAUCACUUUAAGGGUA [U38C A117G U130C] | 0.26
3 | GUUAACGGUCAUAGGCCAUGGAAACUAGGAGCACCAUCUCGCUGCCAGUGAAGAAAUGAACAAAGAAAAUCUGGGCCAGGCAGGCAUCAAAAGAAAUAGUCUUGCGCUCAACCAGAGAGUCUGUAAUCAUUUAAAGGGUA [U38C A117G U133A] | 2.25
4 | GUUAACGGUCAUAGGCCAUGGAAACUAGGAGCACCAUCUCGCUGCCAGUGAAGAAAUGAACAAAGAAAAUCUGGGCCAGGCAGGCAUCAAAAGAAAUAGUCUUGCGCUCAACCAGAAGGUCCGUAAUCAUUUUAAGGGUA [U38C A118G U122C] | 0.79
5 | GUUAACGGUCAUAGGCCAUGGAAACUAGGAGCACCAUCUAGCUGCCAGUGAAGAAAUGAACAAAGAAAAUCUGGGCCAGGCAGGCAUCAAAAGAGAUAGUCUUGCGCUCAACCAGAAAGUCUGUAAUCAUUUUAAGGGUA [U38C C40A A95G] | 2.47
6 | GUUAACGGUCAUAGGCCAUGGAAACUAGGAGCACCAUCUCGUAGCCAGUGAAGAAAUGAACAAAGAAAAUCUGGGCCAGGCAGGCAUCAAAAGAAAUAGUCCUGCGCUCAACCAGAAAGUCUGUAACCAUUUUAAGGGUA [U38C C42U U43A U102C U127C] | 0.67
7 | GUUAACGGUCAUAGGCCAUGGAAACUAGGAGCACCAUCUCGCUGGCAGUGAAGAAAUGAACAAAGAAAAUCUGGGCCGGGCAGGCAUCAAAAGAAAUAGUCUUGCGCUCAACCAGAAAGUCUGUAAUCAUUUUAAGGGUA [U38C C45G A78G] | 0.11
8 | GUUAACGGUCAUAGGCCAUGGAAACUAGGAGCACCAUCUCGCUGUCAGUGGAGAAAUGAACAAAGAAAAUCUGGGCCAGGCUGGCAUCAGAAGAAAUAGUCUUGCGCUCAACCAGAAAGUCUGUAAUCAUUUUAAGGGUA [U38C C45U A51G A82U A90G] | 0.17
9 | GUUAACGGUCAUAGGCCAUGGAAACUAGGAGCACCAUCUCGCUGCCAGUGAAGAAAUGAACAAAGAAAAUAUGGGCCAGGCAGGCAUCAAAAGGAAUAGUCUUGCGCUCAACCAGAAAGUCUGUAAUCAUUUUAAGGGUA [U38C C71A A94G] | 0.97
10 | GUUAACGGUCAUAGGCCAUGGAAACUAGGAGCACCAUCUCGCUGCCAGUGAAGAAAUGAACAAAGAAAAUCUGGGCCAGGUAGGCAUCAAAAGAAAUAGUCUUGCGCUCAACCAGAAAGUCUGUUAUCAUUUUAAGGGUA [U38C C81U A125U] | 0.44
11 | GUUAACGGUCAUAGGCCAUGGAAACUAGGAGCACCAUCUCACUGCCAGUGGAGAAAUGAACAGAGAAAAUCUGGGCCAGGCAGGCAUCAAAAGAAAUAGUCUUGCGCUCAACCAGAAAGUCUGUAAUCAUUUUAAGGGUA [U38C G41A A51G A63G] | 1.76
12 | GUUAACGGUCAUAGGCCAUGGAAACUAGGAGCACCAUCUCGCUGCCAAUGAAGAAGUGAACGAAGGAAAUCUGGGCCAGGCAGGCAUCAAAAGAAAUAGUCUUGCGCUCAACCAGAAAGUCUGUAAUCAUUUUAAGGGUA [U38C G48A A56G A62G A66G] | 0.93
13 | GUUAACGGUCAUAGGCCAUGGAAACUAGGAGCACCAUCUCGCUGCCAGUGAAGAAAUGAACAAAGAAAAUCUGAGCCGGGCAGGCAUCAAAAGAAAUAGUCUUGCGCCCAACCAGAAAGUCUGUAAUCAUUUUAAGGGUA [U38C G74A A78G U108C] | 0.02
14 | GUUAACGGUCAUAGGCCAUGGAAACUAGGAGCACCAUCUCGCUGCCAGUGAAGAAAUGAACAAAGAAAAUCUGAGCCAGGCAGGCAUCAAAAGAAAUAGUCUUGCGCCCAACCAGAAAGUCUGUAAUCAUUUUAAGGGUA [U38C G74A U108C] | 0.01
15 | GUUAACGGUCAUAGGCCAUGGAAACUAGGAGCACCAUCUCGCUGCCAGUGAAGAAAUGAACAAAGAAAAUCUGGCCCAGGCAGGCAUCAAAAGAGAUAGUCUCGCGCUCAACCAGAAAGUCUGUAAUCAUUUUAAGGGUA [U38C G75C A95G U103C] | 0.08
16 | GUUAACGGUCAUAGGCCAUGGAAACUAGGAGCACCAUCUCGCUGCCAGUGAAGAAAUGAACAAAGAAAAUCUGGGCCAGACAGGCAUCAAAAGAAAUAGUCUUGCGCCCAACCAGAAGGUCUGUAAUCACUUUAAGGGUA [U38C G80A U108C A118G U130C] | 0
17 | GUUAACGGUCAUAGGCCAUGGAAACUAGGAGCACCAUCUCGCUGCCAGUGAAGAAAUGAACAAAGAAAAUCUGGGCCAGGCAGGCAUCAAAAAAAACAGUCUUGCGCCCAACCAGAAAGUCUGUAAUCAUUUUAAGGGUA [U38C G93A U97C U108C] | 0.01
18 | GUUAACGGUCAUAGGCCAUGGAAACUAGGAGCACCAUCACGCUGCCAGUGAAGAAAUGAACAAAGAAAAUCUGGGCCAGGCAGGCAUCAAAAGAAAUAGUCUGGCGCUCAACCAGAAAGUCUGUAAUCAUUUUAAGGGUA [U38C U39A U103G] | 0.02
19 | GUUAACGGUCAUAGGCCAUGGAAACUAGGAGCACCAUCCCGCUGCCGGUGAAGAAAUGAACAAAGAAAAUCUGGGCCAGGCAGGCAUCAAAGGAAAUAGUCUUGCGCUCAACCAGAAAGUCUGUAAUCAUUUUAAGGGUA [U38C U39C A47G A92G] | 1.04
20 | GUUAACGGUCAUAGGCCAUGGAAACUAGGAGCACCAUCCCGCUGCCAGUGGAGAAAUGAACAAAGAAAAUCUGGGCCAGGCAGGCAUCAAAAGAAAUAGUCUUGCGCUCAACCAGAAAGUCUGUAAUCAUUUUAAGGGUA [U38C U39C A51G] | 1.41
